Patent publication US6800434B2, “Peptides as NS3-serine protease inhibitors of hepatitis C virus” (priority 2000, dated 2004)
Starred links: 1 amine or outer side, 2 acyl side, 3 side chain; linkers in the order of their positions; H or OH if unused. Non-standard residues stand in square brackets, D forms with d. Residues, ends and D or L forms follow the SMILES beside them. ξ: configuration not given here. *: point of attachment. Pro(trans-4-NH2) = O=C([C@@H]1C[C@@H](N[*:3])CN1[*:1])[*:2]; X22 = O=C(NC[C@@H]1C[C@@H](C(=O)[*:2])N([*:1])C1)Nc1ccccc1; Pro(trans-4-Ph) = O=C(O)[C@@H]1C[C@@H](c2ccccc2)CN1; X12 = O=C(O)C[C@@H]1C[C@@H](C(=O)[*:2])N([*:1])C1; Leuψ(COCO) = CC(C)C[C@H](N[*:1])C(=O)C(=O)[*:2]; Benzoyl(4-OPh) = O=C(c1ccc(Oc2ccccc2)cc1)*; X37 = O=C([C@@H]1CS(=O)(=O)CN1[*:1])[*:2]; X25 = C=CC[C@H](N[*:1])C(=O)C(=O)[*:2]; X31 = C#CC[C@H](N[*:1])C(=O)C(=O)[*:2]; X36 = CC(=O)CC[C@H](N[*:1])C(=O)[*:2]; X1 = CCC[C@H](N[*:1])C(=O)C(=O)[*:2]; X32 = CS(=O)(=O)CC(N[*:1])C(=O)[*:2]; X3 = CCCC(N[*:1])C(=O)C(=O)[*:2]; Cha = N[C@@H](CC1CCCCC1)C(=O)O; Thr(3ξ) = CC(O)[C@H](N)C(=O)O; X29 = CCC[C@H](N*)C(=O)C(=O)O; Chg = N[CH](C(=O)O)C1CCCCC1; NHPhenethyl = c1ccc(CCN*)cc1; hLeu = CC(C)CC[C@H](N)C(=O)O; Pip = O=C(O)[C@@H]1CCCCN1; Nle = CCCC[C@H](N)C(=O)O; Aze = O=C(O)[C@@H]1CCN1; ξE = NC(CCC(=O)O)C(=O)O; NH(propargyl) = C#CCN*; ξV = CC(C)C(N)C(=O)O; OtBu = CC(C)(C)O*; NHAllyl = C=CCN*; βAla = NCCC(=O)O; OAll = C=CCO*; NHPr = CCCN*; X19 = C#CCO*; OPr = CCCO*

Target: Recombinant heterodimeric HCV NS3/NS4A protease (strain 1a) (Hepatitis C virus genotype 1a, UniProt P27958)
Experiment: biochemical
Details: Ki* Range

| Compound | Ki [µM] |
| --- | --- |
| CCC[C@H](NC(=O)[C@@H]1C[C@@H](CNC(=O)Nc2ccccc2)CN1C(=O)[C@@H](NC(=O)[C@@H](NC(=O)[C@H](CCC(=O)O)NC(=O)[C@H](CCC(=O)O)NC(C)=O)C(C)C)C(C)C)C(=O)C(=O)NCC(=O)O [Ac-EEVV-P(4t-MeUreaPh)-nV-(CO)-G-OH] (Ac-EEVV[X22][X1]G-OH) | 0.001 to 0.1 |
| C=CCNC(=O)C(=O)C(CCC)NC(=O)[C@@H]1CS(=O)(=O)CN1C(=O)C(NC(=O)C(NC(=O)C(CCC(=O)O)NC(=O)C(CCC(=O)O)NC(C)=O)C(C)C)C(C)C (stereo partly drawn) [Compound 53] (Ac-[ξE][ξE][ξV][ξV][X37][X3]-NHAllyl) | 0.101 to 0.999 |
| C=CCNC(=O)C(=O)C(CCC)NC(=O)C1CCCN1C(=O)C(NC(=O)C(NC(=O)C(CCC(=O)O)NC(=O)C(CCC(=O)O)NC(C)=O)C(C)C)C1CCCCC1 (stereo not drawn) [Compound 38] (Ac-EEV[Chg]P[X3]-NHAllyl; configuration not given here) | 0.001 to 0.1 |
| C=CCOC(=O)CNC(=O)C(=O)C(CCC)NC(=O)[C@@H]1CCCN1C(=O)[C@H](CC1CCCCC1)NC(=O)[C@@H](NC(=O)[C@H](CCC(=O)OC(C)(C)C)NC(=O)[C@H](CCC(=O)OC(C)(C)C)NC(C)=O)C(C)C (stereo partly drawn) [Compound 74] (Ac-E(OtBu)E(OtBu)V[Cha]P[X3]G-OAll) | 1 to 10 |
| C=CCOC(=O)CNC(=O)C(=O)[C@H](CC(C)C)NC(=O)CNC(=O)[C@@H](NC(=O)[C@@H](NC(=O)[C@H](CCC(=O)O)NC(=O)[C@H](CCC(=O)O)NC(C)=O)C(C)C)C(C)C [Ac-EEVVG-L-(CO)-G-Oallyl] (Ac-EEVVG[Leuψ(COCO)]G-OAll) | 0.101 to 0.999 |
| CCCC(NC(=O)[C@@H]1CCCCN1C(=O)[C@@H](NC(=O)[C@@H](NC(=O)[C@H](CCC(=O)OC(C)(C)C)NC(=O)[C@H](CCC(=O)OC(C)(C)C)NC(C)=O)C(C)C)C1CCCCC1)C(=O)C(=O)NCC(=O)O (stereo partly drawn) [Compound 80] (Ac-E(OtBu)E(OtBu)V[Chg][Pip][X3]G-OH) | 0.001 to 0.1 |
| CCC[C@H](NC(=O)[C@H](CCC(=O)O)NC(=O)[C@@H](NC(=O)[C@@H](NC(=O)[C@H](CCC(=O)O)NC(=O)[C@H](CCC(=O)O)NC(C)=O)C(C)C)C(C)C)C(=O)C(=O)NCC(=O)O [Ac-EEVVE-nV-(CO)-G-OH] (Ac-EEVVE[X1]G-OH) | 0.001 to 0.1 |
| CCC[C@H](NC(=O)[C@@H]1C[C@@H](NC(=O)c2ccc(Oc3ccccc3)cc2)CN1C(=O)[C@@H](NC(=O)[C@@H](NC(=O)[C@H](CCC(=O)O)NC(=O)[C@H](CCC(=O)O)NC(C)=O)C(C)C)C(C)C)C(=O)C(=O)NCC(=O)O [Ac-EEVV-P(4t-NHBzl(4-OPh))-nV-(CO)-G-OH] (Ac-EEVV[Pro(trans-4-NH2)](Benzoyl(4-OPh))[X1]G-OH) | 0.001 to 0.1 |
| C#CC[C@H](NC(=O)[C@@H]1CCCN1C(=O)[C@@H](NC(=O)[C@@H](NC(=O)[C@H](CCC(=O)O)NC(=O)[C@H](CCC(=O)O)NC(C)=O)C(C)C)C(C)C)C(=O)C(=O)NCC(=O)OCC=C [Ac-EEVVP-G(propynyl)-(CO)-G-Oallyl] (Ac-EEVVP[X31]G-OAll) | 0.101 to 0.999 |
| CCCNC(=O)C(=O)C(CCC)NC(=O)[C@@H]1CCCN1C(=O)[C@@H](NC(=O)[C@@H](NC(=O)[C@H](CCC(=O)OC(C)(C)C)NC(=O)[C@H](CCC(=O)OC(C)(C)C)NC(C)=O)C(C)C)C(C)C (stereo partly drawn) [Compound 9] (Ac-E(OtBu)E(OtBu)VVP[X3]-NHPr) | 0.101 to 0.999 |
| CCCC(NC(=O)C(CS(C)(=O)=O)NC(=O)C(NC(=O)C(NC(=O)C(CCC(=O)O)NC(=O)C(CCC(=O)O)NC(C)=O)C(C)C)C1CCCCC1)C(=O)C(=O)NCC(=O)O (stereo not drawn) [Compound 88] (Ac-EEV[Chg][X32][X3]G-OH; configuration not given here) | 0.101 to 0.999 |
| CCC[C@H](NC(=O)[C@@H]1CCCN1C(=O)[C@@H](NC(=O)[C@@H](NC(=O)[C@H](CCC(=O)O)NC(=O)[C@H](CCC(=O)O)NC(C)=O)C(C)C)C(C)C)C(=O)C(=O)NCC(=O)NCCc1ccccc1 [Ac-EEVVP-nV-(CO)-G-2PhEtAm] (Ac-EEVVP[X1]G-NHPhenethyl) | 1 to 10 |
| CCC[C@H](NC(=O)[C@@H]1CCCN1C(=O)[C@@H](NC(=O)[C@@H](NC(=O)[C@H](CCC(=O)O)NC(=O)[C@H](CCC(=O)O)NC(C)=O)C(C)C)C(C)C)C(=O)C(=O)O [Ac-EEVVP-nV-(CO)-OH, Ac-Glu-Glu-Val-Val-Pro-nVal(CO)-Carboxylic Acid] (Ac-EEVVP-X29) | 1 to 10 |
| C=CCNC(=O)C(=O)C(CCC)NC(=O)C1CCCN1C(=O)C(NC(=O)C(NC(=O)C(CCC(=O)OC(C)(C)C)NC(=O)C(CCC(=O)OC(C)(C)C)NC(C)=O)C(C)C)C1CCCCC1 (stereo not drawn) [Compound 35] (Ac-E(OtBu)E(OtBu)V[Chg]P[X3]-NHAllyl; configuration not given here) | 1 to 10 |
| CCCC(NC(=O)[C@@H]1CCCCN1C(=O)[C@@H](NC(=O)[C@@H](NC(=O)[C@H](CCC(=O)O)NC(=O)[C@H](CCC(=O)O)NC(C)=O)C(C)C)C1CCCCC1)C(=O)C(=O)NCC(=O)O (stereo partly drawn) [Compound 79] (Ac-EEV[Chg][Pip][X3]G-OH) | 0.001 to 0.1 |
| CCCC[C@H](NC(=O)[C@@H](NC(=O)[C@H](CCC(=O)O)NC(=O)[C@H](CCC(=O)O)NC(C)=O)C(C)C)C(=O)N1CCC[C@H]1C(=O)N[C@@H](CCC)C(=O)C(=O)NCC(=O)O [Ac-EEV-nL-P-nV-(CO)-G-OH] (Ac-EEV[Nle]P[X1]G-OH) | 0.101 to 0.999 |
| CCCC(NC(=O)[C@@H]1CCCN1C(=O)[C@H](CC1CCCCC1)NC(=O)[C@@H](NC(=O)[C@H](CCC(=O)O)NC(=O)[C@H](CCC(=O)O)NC(C)=O)C(C)C)C(=O)C(=O)NCC(=O)O (stereo partly drawn) [Compound 72] (Ac-EEV[Cha]P[X3]G-OH) | 0.101 to 0.999 |
| CCC[C@H](NC(=O)[C@@H]1C[C@@H](CC(=O)O)CN1C(=O)[C@@H](NC(=O)[C@@H](NC(=O)[C@H](CCC(=O)O)NC(=O)[C@H](CCC(=O)O)NC(C)=O)C(C)C)C(C)C)C(=O)C(=O)NCC(=O)O [Ac-EEVV-P(4t-AcOH)-nV-(CO)-G-OH] (Ac-EEVV[X12][X1]G-OH) | 0.001 to 0.1 |
| CCC[C@H](NC(=O)[C@@H]1CCCN1C(=O)[C@@H](NC(=O)[C@@H](NC(=O)[C@H](CCC(=O)O)NC(=O)[C@H](CCC(=O)O)NC(C)=O)C(C)C)C(C)O)C(=O)C(=O)NCC(=O)O (stereo partly drawn) [Ac-EEVTP-nV-(CO)-G-OH] (Ac-EEV[Thr(3ξ)]P[X1]G-OH) | 1 to 10 |
| CCCOC(=O)CNC(=O)C(=O)[C@H](CCC)NC(=O)[C@@H]1C[C@@H](c2ccccc2)CN1C(=O)[C@@H](NC(=O)[C@@H](NC(=O)[C@H](CCC(C)=O)NC(=O)[C@H](CCC(=O)O)NC(C)=O)C(C)C)C1CCCCC1 [Compound 83] (Ac-E[X36]V[Chg][Pro(trans-4-Ph)][X1]G-OPr) | 0.001 to 0.1 |
| CCC[C@H](NC(=O)[C@@H]1CCCN1C(=O)[C@H](CO)NC(=O)[C@@H](NC(=O)[C@H](CCC(=O)O)NC(=O)[C@H](CCC(=O)O)NC(C)=O)C(C)C)C(=O)C(=O)NCC(=O)O [Ac-EEVSP-nV-(CO)-G-OH] (Ac-EEVSP[X1]G-OH) | 1 to 10 |
| CCC[C@H](NC(=O)[C@@H]1CCCN1C(=O)[C@H](CS)NC(=O)[C@@H](NC(=O)[C@H](CCC(=O)O)NC(=O)[C@H](CCC(=O)O)NC(C)=O)C(C)C)C(=O)C(=O)NCC(=O)O [Ac-EEVCP-nV-(CO)-G-OH] (Ac-EEVCP[X1]G-OH) | 0.101 to 0.999 |
| C=CC[C@H](NC(=O)[C@@H]1CCCN1C(=O)[C@@H](NC(=O)[C@@H](NC(=O)[C@H](CCC(=O)O)NC(=O)[C@H](CCC(=O)O)NC(C)=O)C(C)C)C(C)C)C(=O)C(=O)NCC(=O)OCC [Ac-EEVVP-G(allyl)-(CO)-G-OEt] (Ac-EEVVP[X25]G-OEt) | 0.101 to 0.999 |
| C#CCOC(=O)CNC(=O)C(=O)[C@H](CCC)NC(=O)[C@@H]1CCCN1C(=O)[C@@H](NC(=O)[C@@H](NC(=O)[C@H](CCC(=O)OC(C)(C)C)NC(=O)[C@H](CCC(=O)OC(C)(C)C)NC(C)=O)C(C)C)C(C)C [Compound 14] (Ac-E(OtBu)E(OtBu)VVP[X1]G-X19) | 0.101 to 0.999 |
| C#CCNC(=O)C(=O)[C@H](CCC)NC(=O)[C@@H]1CCCN1C(=O)[C@@H](NC(=O)[C@@H](NC(=O)[C@H](CCC(=O)O)NC(=O)[C@H](CCC(=O)O)NC(C)=O)C(C)C)C(C)C [Compound 12] (Ac-EEVVP[X1]-{NH(propargyl)}) | 0.101 to 0.999 |
| CCC[C@H](NC(=O)[C@@H]1CCCN1C(=O)[C@@H](NC(=O)[C@@H](NC(=O)[C@H](CCC(=O)O)NC(=O)[C@H](CCC(=O)O)NC(C)=O)C(C)C)C(C)C)C(=O)C(=O)NCCC(=O)O [Compound 26] (Ac-EEVVP[X1][βAla]-OH) | 0.101 to 0.999 |
| CCC[C@H](NC(=O)[C@@H]1C[C@@H](c2ccccc2)CN1C(=O)[C@@H](NC(=O)[C@@H](NC(=O)[C@H](CCC(=O)O)NC(=O)[C@H](CCC(=O)O)NC(C)=O)C(C)C)C(C)C)C(=O)C(=O)NCC(=O)O [Ac-EEVV-P(4t-Ph)-nV-(CO)-G-OH] (Ac-EEVV[Pro(trans-4-Ph)][X1]G-OH) | 0.001 to 0.1 |
| CCC[C@H](NC(=O)[C@@H]1CCN1C(=O)[C@@H](NC(=O)[C@@H](NC(=O)[C@H](CCC(=O)O)NC(=O)[C@H](CCC(=O)O)NC(C)=O)C(C)C)C(C)C)C(=O)C(=O)NCC(=O)O [Ac-EEVV-Aze-nV-(CO)-G-OH] (Ac-EEVV[Aze][X1]G-OH) | 0.001 to 0.1 |
| CCCOC(=O)CNC(=O)C(=O)C(CCC)NC(=O)[C@@H]1CCCCN1C(=O)[C@@H](NC(=O)[C@@H](NC(=O)[C@H](CCC(=O)O)NC(=O)[C@H](CCC(=O)O)NC(C)=O)C(C)C)C1CCCCC1 (stereo partly drawn) [Compound 78] (Ac-EEV[Chg][Pip][X3]G-OPr) | 0.101 to 0.999 |
| C=CCNC(=O)C(=O)C(CCC)NC(=O)[C@@H]1CCCN1C(=O)[C@H](CCC(C)C)NC(=O)[C@@H](NC(=O)[C@H](CCC(=O)O)NC(=O)[C@H](CCC(=O)O)NC(C)=O)C(C)C (stereo partly drawn) [Compound 67] (Ac-EEV[hLeu]P[X3]-NHAllyl) | 0.101 to 0.999 |
